Reference: patent publication US20210380678A1 (SURROZEN OPERATING, published 2021)

B1: αASGR1-RSPO2-WT (anti-ASGR1, RSPO2 wild type) (other)
chain: [letters of about 100 residues omitted]DFSSRRWYLEYWGQGTLVTVSSGGGGSGGGGSGGGGSELTQDPAVSVALGQTVRITCQGDSLRSYYASWYQQKPGQAPVLVIYGKNNRPSGIPDRFSGSSSGNTASLTITGAQAEDEADYYCNSLERIGYLSYVFGGGTKLTVLGSGGSNPICKGCLSCSKDNGCSRCQQKLFFFLRREGMRQYGECLHSCPSGYYGHRAPDMNRCARCRIENCDSCFSKDFCTKCKVGFYLHRGRCFDECPDGFAPLEETMECVEGGDYKDDDDKGSHHHHHHHH
notes: scFv of an ASGR1 antibody (e.g., RO-01) fused to the N-terminus of the RSPO2 fragment; FLAG-His tag
B2: αASGR1-RSPO2-5mut (anti-ASGR1, RSPO2 (R65A/R69A/Q70A/F105A/F109A)) (other)
chain: [letters of about 100 residues omitted]DFSSRRWYLEYWGQGTLVTVSSGGGGSGGGGSGGGGSELTQDPAVSVALGQTVRITCQGDSLRSYYASWYQQKPGQAPVLVIYGKNNRPSGIPDRFSGSSSGNTASLTITGAQAEDEADYYCNSLERIGYLSYVFGGGTKLTVLGSGGSNPICKGCLSCSKDNGCSRCQQKLFFFLRAEGMAAYGECLHSCPSGYYGHRAPDMNRCARCRIENCDSCRSKDACTKCKVGFYLHRGRCFDECPDGFAPLEETMECVEGGDYKDDDDKGSHHHHHHHH
notes: scFv of an ASGR1 antibody fused to the RSPO2 fragment with five mutations; FLAG-His tag; also called αASGR1-RSPO2-Smut

Experiments:
[1] = molecular target: T1, human ASGR1, full length, on cells (human, UniProt P07306 1-291); assay: cell-based or functional assay
T1 sequence (looked up): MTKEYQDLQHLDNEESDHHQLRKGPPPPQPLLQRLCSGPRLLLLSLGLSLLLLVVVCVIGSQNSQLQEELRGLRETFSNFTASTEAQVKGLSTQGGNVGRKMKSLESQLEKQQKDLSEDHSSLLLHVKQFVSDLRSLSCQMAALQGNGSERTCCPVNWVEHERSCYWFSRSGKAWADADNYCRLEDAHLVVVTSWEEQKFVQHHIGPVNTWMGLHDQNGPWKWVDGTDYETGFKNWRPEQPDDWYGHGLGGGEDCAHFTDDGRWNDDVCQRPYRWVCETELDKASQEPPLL

[2] = molecular target: T2, human ZNRF3 extracellular domain (hZNRF3 ECD) (human, UniProt Q9ULT6 56-219, biotinylated (His-Avi tag)); assay: BLI (Octet), biotinylated ZNRF3 ECD on SA sensor
T2 construct: Expressed with a His-Avi tag at the N-terminus and biotinylated; also called ZRNF3
T2 sequence: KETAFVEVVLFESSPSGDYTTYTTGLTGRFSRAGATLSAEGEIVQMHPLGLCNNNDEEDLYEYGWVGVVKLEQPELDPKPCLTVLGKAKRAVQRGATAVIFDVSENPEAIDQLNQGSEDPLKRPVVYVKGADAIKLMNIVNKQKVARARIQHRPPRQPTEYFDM
Description: (§1) Affinity measurement: Binding kinetics of the RSPO-derived proteins to LGRS, RNF43, or ZNRF3, and binding of the anti-ASGR Fabs to human and/or mouse ASGR1 were determined by bio-layer interferometry (BLI) using Octet Red 96 (PALL ForteBio, Fremont, CA) instruments at 30° C., 1000 rpm with either streptavidin (SA) or anti-hIgG Fc capture (AHC) biosensors. […] Following capture of ECDs of RNF43, ZNRF3 or LGRS, the biosensors were dipped into wells containing the relevant test molecules at 7 different concentrations in running buffer plus a well with only running buffer as a reference channel. KD was determined by steady-state analysis based on the average responses between 140 to 145 seconds of association phase, for binding to LGRS, RNF43, and ZNRF3. For the binding to ASGR, KD was determined by curve model fitting using the Octet® Red data analysis software (Fortebio)

[3] = molecular target: T3, human RNF43 extracellular domain (hRNF43 ECD) (human, UniProt Q68DV7 44-197, biotinylated (His-Avi tag)); assay: BLI (Octet), biotinylated RNF43 ECD on SA sensor
T3 construct: Expressed with a His-Avi tag at the N-terminus and biotinylated; also called human RNF3 (Q44-D198)
T3 sequence: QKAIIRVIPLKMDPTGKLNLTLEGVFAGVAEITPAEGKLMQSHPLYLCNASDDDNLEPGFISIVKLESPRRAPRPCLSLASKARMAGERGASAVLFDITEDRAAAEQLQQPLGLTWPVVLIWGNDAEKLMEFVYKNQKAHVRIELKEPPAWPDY
Description: as §1

[4] = molecular target: T4, Fc portion of human IgG1-fused LGR5-ECD (R&D systems) (human, UniProt O75473 22-557, limits assumed); assay: BLI (Octet), LGR5-ECD-Fc on AHC sensor
T4 construct: extracellular domain; Bought reagent; also called LGRS; recombinant LGR5 protein; not shown: Fc portion of human IgG1
T4 sequence (looked up): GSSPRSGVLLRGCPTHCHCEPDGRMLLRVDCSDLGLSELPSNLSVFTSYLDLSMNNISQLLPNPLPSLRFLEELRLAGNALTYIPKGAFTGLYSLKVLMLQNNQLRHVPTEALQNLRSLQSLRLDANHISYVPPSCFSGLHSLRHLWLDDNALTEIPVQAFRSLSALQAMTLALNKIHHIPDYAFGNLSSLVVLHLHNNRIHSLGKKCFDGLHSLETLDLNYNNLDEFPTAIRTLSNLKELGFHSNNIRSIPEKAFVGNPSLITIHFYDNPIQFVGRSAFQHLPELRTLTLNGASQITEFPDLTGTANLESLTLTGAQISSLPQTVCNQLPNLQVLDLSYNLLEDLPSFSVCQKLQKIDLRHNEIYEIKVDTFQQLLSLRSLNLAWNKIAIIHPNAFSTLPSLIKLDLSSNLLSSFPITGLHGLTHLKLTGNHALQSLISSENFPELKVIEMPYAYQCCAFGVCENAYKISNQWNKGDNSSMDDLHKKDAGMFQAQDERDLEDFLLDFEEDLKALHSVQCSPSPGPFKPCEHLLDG
Description: as §1

| Binder | shift of the STF dose response curve in Huh-7 STF cells [1] | binding result [2] | binding result [3] | binding result [4] |
| --- | --- | --- | --- | --- |
| B1 | ~6 fold | binds | binds |  |
| B2 |  | no binding | no binding | no binding |
